Assay [1] has as its target T1, human 4-1BB (human, UniProt Q07011 24-255).
T1 construct: whole, on cells; also called CD137; TNFRSF9
The assay can be described thus: FACS, CHO-K1/h4-1BB cells [H].

Assay [2] concerns the target T1, human 4-1BB. The assay can be described thus: FACS, CHO-K1/h4-1BB cells [K]. For orientation: In flow cytometry, cells or beads pass a laser one at a time.
The target of assay [3] is T1, human 4-1BB. The assay can be described thus: FACS, CHO-K1/h4-1BB cells [J].
Assay [4] addresses T1, human 4-1BB. The assay can be described thus: FACS, CHO-K1/h4-1BB cells [E].
The target in a further assay is T2, cynomolgus monkey 4-1BB (cynomolgus monkey).
T2 construct: whole, on cells; also called CHO-K1-cyno 4-1BB; CHO-K1/cyno4-1BB
Briefly: FACS, CHO-K1/cyno 4-1BB cells [C].

The target of another assay is T3, Human CD 16b (human, UniProt O75015 17-200, limits assumed).
T3 construct: bought protein
Briefly: BLI, antibody captured on FAB2G sensor, receptor as analyte. A general note: BLI is a label-free optical method that tracks binding on a fibre tip over time.

The target of a further assay is T4, Cynomolgus monkey CD 16 (cynomolgus monkey, UniProt Q8SPW2 17-208).
T4 construct: bought protein
Described as above.

T1 sequence (Q07011 24-255): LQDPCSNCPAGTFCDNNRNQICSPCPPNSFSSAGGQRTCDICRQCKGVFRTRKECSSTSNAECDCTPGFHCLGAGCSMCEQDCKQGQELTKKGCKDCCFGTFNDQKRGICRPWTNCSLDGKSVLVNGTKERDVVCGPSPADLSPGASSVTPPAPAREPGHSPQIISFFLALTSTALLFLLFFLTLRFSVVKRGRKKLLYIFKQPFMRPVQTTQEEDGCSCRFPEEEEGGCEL
Chain of Cynomolgus monkey CD 16 (Q8SPW2 17-208 limits assumed): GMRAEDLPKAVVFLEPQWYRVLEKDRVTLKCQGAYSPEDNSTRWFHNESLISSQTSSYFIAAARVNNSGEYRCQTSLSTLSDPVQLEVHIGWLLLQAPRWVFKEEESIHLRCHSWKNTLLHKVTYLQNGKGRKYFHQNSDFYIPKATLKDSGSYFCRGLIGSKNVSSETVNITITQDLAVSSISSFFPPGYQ
Chain of Human CD 16b (O75015 17-200 limits assumed): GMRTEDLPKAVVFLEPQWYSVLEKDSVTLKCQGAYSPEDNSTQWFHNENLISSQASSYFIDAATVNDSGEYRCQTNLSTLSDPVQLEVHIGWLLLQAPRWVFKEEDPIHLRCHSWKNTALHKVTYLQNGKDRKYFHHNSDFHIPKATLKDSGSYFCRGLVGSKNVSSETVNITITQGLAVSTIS

B1: PR004279 (bispecific antibody)
chain 1: QVQLVESGGGVVQPGRSLRLSCAASGFTFRSFGMHWVRQAPGKGLEWVAVISYDASNEYYADSVKGRFIISRDNSKDTLYLQMNSLRAGDTAVYYCAKGGGLRWYFAYWGQGTLVTVSSASTKGPSVFPLAPSSKSTSGGTAALGCLVKDYFPEPVTVSWNSGALTSGVHTFPAVLQSSGLYSLSSVVTVPSSSLGTQTYICNVNHKPSNTKVDKKVEPKSC
chain 2: EIVMTQSPATLSVSPGERATLSCRASQSISSNLGWYQQKPGQAPRLLIYGASTRATGIPARFSGSGSGTEFTLTISSLQSEDFAVYYCQQYQSWPPLTFGGGTKVEIKRTVAAPSVFIFPPSDEQLKSGTASVVCLLNNFYPREAKVQWKVDNALQSGNSQESVTEQDSKDSTYSLSSTLTLSKADYEKHKVYACEVTHQGLSSPVTKSFNRGECEPKSSDKTHTPPPPPEVQLVESGGGVVQPGGSLRLSCAASGFTFSNYAMTWVRQAPEKGLEWVSSISGSGVSTYYADSVKGRFTISRDNSKNTLYLQMTRLTAEDTAVYFCAKEGSSETDDHYYNVDVWGQGTTVTVSS[letters of human IgG1 Fc with changes not shown]
notes: PR002408 Fab x PR001760 VH; IgG1 (L234A, L235A)
Turning to B1, in the assay with human 4-1BB [1], the 50% effective concentration (EC50) amounted to 0.503 nM.

B2: PR005189 (bispecific antibody)
polypeptide chain 1: QVQLVESGGGVVQPGRSLRLSCAASGFTFRSFGMHWVRQAPGKGLEWVAVISYDASNEYYADSVKGRFIISRDNSKDTLYLQMNSLRAGDTAVYYCAKGGGLRWYFAYWGQGTLVTVSSASTKGPSVFPLAPSSKSTSGGTAALGCLVKDYFPEPVTVSWNSGALTSGVHTFPAVLQSSGLYSLSSVVTVPSSSLGTQTYICNVNHKPSNTKVDKKVEPKSC
polypeptide chain 2: EIVMTQSPATLSVSPGERATLSCRASQSISSNLGWYQQKPGQAPRLLIYGASTRATGIPARFSGSGSGTEFTLTISSLQSEDFAVYYCQQYQSWPPLTFGGGTKVEIKRTVAAPSVFIFPPSDEQLKSGTASVVCLLNNFYPREAKVQWKVDNALQSGNSQESVTEQDSKDSTYSLSSTLTLSKADYEKHKVYACEVTHQGLSSPVTKSFNRGECEVQLVESGGGVVQPGGSLRLSCAASGFTFSNYAMTWVRQAPEKGLEWVSSISGSGVSTYYADSVKGRFTISRDNSKNTLYLQMTRLTAEDTAVYFCAKEGSSETDDHYYNVDVWGQGTTVTVSS[letters of human IgG1 Fc with changes not shown]
notes: Fab-HCAb: PR002408 Fab + PR001760 VH, human IgG1 (L234A, L235A)
B2: in the assay with human 4-1BB [2], the concentration giving a half-maximal response (EC50) was determined as 4.25 nM and the “Maximum MFI” value stood at 92400 MFI.

B3: PR005650 (bispecific antibody)
polypeptide chain 1: QVQLVESGGGVVQPGRSLRLSCAASGFTFRSFGMHWVRQAPGKGLEWVAVISYDASNEYYADSVKGRFIISRDNSKDTLYLQMNSLRAGDTAVYYCAKGGGLRWYFAYWGQGTLVTVSSASTKGPSVFPLAPSSKSTSGGTAALGCLVKDYFPEPVTVSWNSGALTSGVHTFPAVLQSSGLYSLSSVVTVPSSSLGTQTYICNVNHKPSNTKVDKKVEPKSC
polypeptide chain 2: EIVMTQSPATLSVSPGERATLSCRASQSISSNLGWYQQKPGQAPRLLIYGASTRATGIPARFSGSGSGTEFTLTISSLQSEDFAVYYCQQYQSWPPLTFGGGTKVEIKRTVAAPSVFIFPPSDEQLKSGTASVVCLLNNFYPREAKVQWKVDNALQSGNSQESVTEQDSKDSTYSLSSTLTLSKADYEKHKVYACEVTHQGLSSPVTKSFNRGECEVQLVESGGGVVQPGGSLRLSCAASGFTFSNYAMTWVRQAPEKGLEWVSSISGSGVSTYYADSVKGRFTISRDNSKNTLYLQMTRLTAEDTAVYFCAKEGSSETDDHYYNVDVWGQGTTVTVSS[letters of human IgG1 Fc with changes not shown]EVQLVESGGGVVQPGGSLRLSCAASGFTFSNYAMTWVRQAPEKGLEWVSSISGSGVSTYYADSVKGRFTISRDNSKNTLYLQMTRLTAEDTAVYFCAKEGSSETDDHYYNVDVWGQGTTVTVSS
notes: Fab-VH-Fc-VH: PR002408 + PR001760 VH, human IgG1 (L234A, L235A)
On to B3, for which, in the assay with human 4-1BB [3], a half-maximal effect (EC50) was put at 0.531 nM.

B4: PR005649 (bispecific antibody)
polypeptide chain 1: QVQLVESGGGVVQPGRSLRLSCAASGFTFRSFGMHWVRQAPGKGLEWVAVISYDASNEYYADSVKGRFIISRDNSKDTLYLQMNSLRAGDTAVYYCAKGGGLRWYFAYWGQGTLVTVSSASTKGPSVFPLAPSSKSTSGGTAALGCLVKDYFPEPVTVSWNSGALTSGVHTFPAVLQSSGLYSLSSVVTVPSSSLGTQTYICNVNHKPSNTKVDKKVEPKSC
polypeptide chain 2: EIVMTQSPATLSVSPGERATLSCRASQSISSNLGWYQQKPGQAPRLLIYGASTRATGIPARFSGSGSGTEFTLTISSLQSEDFAVYYCQQYQSWPPLTFGGGTKVEIKRTVAAPSVFIFPPSDEQLKSGTASVVCLLNNFYPREAKVQWKVDNALQSGNSQESVTEQDSKDSTYSLSSTLTLSKADYEKHKVYACEVTHQGLSSPVTKSFNRGECEPKSSDKTHTPPPPPEVQLVESGGGVVQPGGSLRLSCAASGFTFSNYAMTWVRQAPEKGLEWVSSISGSGVSTYYADSVKGRFTISRDNSKNTLYLQMTRLTAEDTAVYFCAKEGSSETDDHYYNVDVWGQGTTVTVSSERKCCVECPPCPAPEAAGGPSVFLFPPKPKDTLMISRTPEVTCVVVDVSHEDPEVKFNWYVDGVEVHNAKTKPREEQYNSTYRVVSVLTVLHQDWLNGKEYKCKVSNKALPAPIEKTISKAKGQPREPQVYTLPPSREEMTKNQVSLTCLVKGFYPSDIAVEWESNGQPENNYKTTPPVLDSDGSFFLYSKLTVDKSRWQQGNVFSCSVMHEALHNHYTQKSLSLSPGK
notes: as for B2
B4 displayed an EC50 with human 4-1BB [3] of 0.533 nM.

B5: PR003488 (bispecific antibody, human IgG1, kappa)
light: EIVMTQSPATLSVSPGERATLSCRASQSISSNLGWYQQKPGQAPRLLIYGASTRATGIPARFSGSGSGTEFTLTISSLQSEDFAVYYCQQYQSWPPLTFGGGTKVEIKRTVAAPSVFIFPPSDEQLKSGTASVVCLLNNFYPREAKVQWKVDNALQSGNSQESVTEQDSKDSTYSLSSTLTLSKADYEKHKVYACEVTHQGLSSPVTKSFNRGEC
heavy: QVQLVESGGGVVQPGRSLRLSCAASGFTFRSFGMHWVRQAPGKGLEWVAVISYDASNEYYADSVKGRFIISRDNSKDTLYLQMNSLRAGDTAVYYCAKGGGLRWYFAYWGQGTLVTVSSASTKGPSVFPLAPSSKSTSGGTAALGCLVKDYFPEPVTVSWNSGALTSGVHTFPAVLQSSGLYSLSSVVTVPSSSLGTQTYICNVNHKPSNTKVDKKV[letters of human IgG1 Fc with changes not shown]EPKSSDKTHTPPPPPRTEVQLVESGGGVVQPGGSLRLSCAASGFTFSNYAMTWVRQAPEKGLEWVSSISGSGVSTYYADSVKGRFTISRDNSKNTLYLQMTRLTAEDTAVYFCAKEGSSETDDHYYNVDVWGQGTTVTVSSGGGGSEVQLVESGGGVVQPGGSLRLSCAASGFTFSNYAMTWVRQAPEKGLEWVSSISGSGVSTYYADSVKGRFTISRDNSKNTLYLQMTRLTAEDTAVYFCAKEGSSETDDHYYNVDVWGQGTTVTVSS
notes: IgG-VH-VH hexavalent symmetric; PR002408 IgG x PR001760 VH; second linker GS_5; IgG1 (L234A, L235A)
In the case of B5, in the assay with human 4-1BB [4], the midpoint of the response, the EC50, lay at 0.773 nM and the “Maximum MFI” value came to 98200 MFI. In the assay with cynomolgus monkey 4-1BB, the EC50 came to 0.382 nM and the “Maximum MFI” value stood at 13600 MFI.

B6: PR003489 (bispecific antibody, human IgG1, kappa)
light: EIVMTQSPATLSVSPGERATLSCRASQSISSNLGWYQQKPGQAPRLLIYGASTRATGIPARFSGSGSGTEFTLTISSLQSEDFAVYYCQQYQSWPPLTFGGGTKVEIKRTVAAPSVFIFPPSDEQLKSGTASVVCLLNNFYPREAKVQWKVDNALQSGNSQESVTEQDSKDSTYSLSSTLTLSKADYEKHKVYACEVTHQGLSSPVTKSFNRGEC
heavy: QVQLVESGGGVVQPGRSLRLSCAASGFTFRSFGMHWVRQAPGKGLEWVAVISYDASNEYYADSVKGRFIISRDNSKDTLYLQMNSLRAGDTAVYYCAKGGGLRWYFAYWGQGTLVTVSSASTKGPSVFPLAPSSKSTSGGTAALGCLVKDYFPEPVTVSWNSGALTSGVHTFPAVLQSSGLYSLSSVVTVPSSSLGTQTYICNVNHKPSNTKVDKKV[letters of human IgG1 Fc with changes not shown]EPKSSDKTHTPPPPPRTEVQLVESGGGVVQPGGSLRLSCAASGFTFSNYAMTWVRQAPEKGLEWVSSISGSGVSTYYADSVKGRFTISRDNSKNTLYLQMTRLTAEDTAVYFCAKEGSSETDDHYYNVDVWGQGTTVTVSSGGGGSGGGGSGGGGSEVQLVESGGGVVQPGGSLRLSCAASGFTFSNYAMTWVRQAPEKGLEWVSSISGSGVSTYYADSVKGRFTISRDNSKNTLYLQMTRLTAEDTAVYFCAKEGSSETDDHYYNVDVWGQGTTVTVSS
notes: IgG-VH-VH hexavalent symmetric; PR002408 IgG x PR001760 VH; second linker GS_15; IgG1 (L234A, L235A)
For B6, the EC50 was determined as 0.895 nM with human 4-1BB [4] and 0.576 nM with cynomolgus monkey 4-1BB. Further, the “Maximum MFI” value was 101000 MFI with human 4-1BB [4] and 15200 MFI with cynomolgus monkey 4-1BB.

B7: PR007165 (bispecific antibody, human IgG1)
polypeptide chain 1: EIVMTQSPATLSVSPGERATLSCRASQSISSNLGWYQQKPGQAPRLLIYGASTRATGIPARFSGSGSGTEFTLTISSLQSEDFAVYYCQQYQSWPPLTFGGGTKVEIKRTVAAPSVFIFPPSDEQLKSGTASVVCLLNNFYPREAKVQWKVDNALQSGNSQESVTEQDSKDSTYSLSSTLTLSKADYEKHKVYACEVTHQGLSSPVTKSFNRGEC
polypeptide chain 2: QVQLVESGGGVVQPGRSLRLSCAASGFTFRSFGMHWVRQAPGKGLEWVAVISYDASNEYYADSVKGRFIISRDNSKDTLYLQMNSLRAGDTAVYYCAKGGGLRWYFAYWGQGTLVTVSSASTKGPSVFPLAPSSKSTSGGTAALGCLVKDYFPEPVTVSWNSGALTSGVHTFPAVLQSSGLYSLSSVVTVPSSSLGTQTYICNVNHKPSNTKVDKKVEPKSCEVQLVESGGGVVQPGGSLRLSCAASGFTFSNYAMTWVRQAPEKGLEWVSSISGSGVSTYYADSVKGRFTISRDNSKNTLYLQMTRLTAEDTAVYFCAKEGSSETDDHYYNVDVWGQGTTVTVSS[letters of human IgG1 Fc with changes not shown]
notes: Fab-HCAb (structure E): PR002408 Fab + PR001760 VH, human IgG1 (L234A, L235A)
Regarding B7, in the assay with human 4-1BB [2], the EC50 came out at 4 nM and the “Maximum MFI” value stood at 71200 MFI.

B8: PR002408 (antibody, human IgG1, kappa)
heavy: QVQLVESGGGVVQPGRSLRLSCAASGFTFRSFGMHWVRQAPGKGLEWVAVISYDASNEYYADSVKGRFIISRDNSKDTLYLQMNSLRAGDTAVYYCAKGGGLRWYFAYWGQGTLVTVSS[letters of human IgG1 constant region not shown]
light: EIVMTQSPATLSVSPGERATLSCRASQSISSNLGWYQQKPGQAPRLLIYGASTRATGIPARFSGSGSGTEFTLTISSLQSEDFAVYYCQQYQSWPPLTFGGGTKVEIKRTVAAPSVFIFPPSDEQLKSGTASVVCLLNNFYPREAKVQWKVDNALQSGNSQESVTEQDSKDSTYSLSSTLTLSKADYEKHKVYACEVTHQGLSSPVTKSFNRGEC
notes: anti-B7-H4 H2L2 recombinant fully human antibody, human IgG1 / kappa; also called PR001476 variant
In the case of B8, the values for the Kd with Human CD 16b and with Cynomolgus monkey CD 16 were 3800 nM and 129 nM, respectively.

For orientation: EC50 means the concentration at which the effect is half-maximal. As usually defined, the Kd is a measure of binding affinity in units of concentration.

These data come from patent US20230235090A1 (HARBOUR BIOMED US, published 2023).
